From article PMC4336329 (PLoS ONE, 2015)
The whole screen tested about 310,000 compounds, of which about 2,200 (0.71%) showed an effect of 50% or more. Effects have a minus sign here. The list shows a part of the results.

Target: human ether-à-go-go-related gene (hERG) potassium channel (human, UniProt Q12809)
Assay: primary screen, population patch clamp on CHO cells stably expressing hERG

Chain of human ether-à-go-go-related gene (hERG) potassium channel (Q12809 whole entry, looked up): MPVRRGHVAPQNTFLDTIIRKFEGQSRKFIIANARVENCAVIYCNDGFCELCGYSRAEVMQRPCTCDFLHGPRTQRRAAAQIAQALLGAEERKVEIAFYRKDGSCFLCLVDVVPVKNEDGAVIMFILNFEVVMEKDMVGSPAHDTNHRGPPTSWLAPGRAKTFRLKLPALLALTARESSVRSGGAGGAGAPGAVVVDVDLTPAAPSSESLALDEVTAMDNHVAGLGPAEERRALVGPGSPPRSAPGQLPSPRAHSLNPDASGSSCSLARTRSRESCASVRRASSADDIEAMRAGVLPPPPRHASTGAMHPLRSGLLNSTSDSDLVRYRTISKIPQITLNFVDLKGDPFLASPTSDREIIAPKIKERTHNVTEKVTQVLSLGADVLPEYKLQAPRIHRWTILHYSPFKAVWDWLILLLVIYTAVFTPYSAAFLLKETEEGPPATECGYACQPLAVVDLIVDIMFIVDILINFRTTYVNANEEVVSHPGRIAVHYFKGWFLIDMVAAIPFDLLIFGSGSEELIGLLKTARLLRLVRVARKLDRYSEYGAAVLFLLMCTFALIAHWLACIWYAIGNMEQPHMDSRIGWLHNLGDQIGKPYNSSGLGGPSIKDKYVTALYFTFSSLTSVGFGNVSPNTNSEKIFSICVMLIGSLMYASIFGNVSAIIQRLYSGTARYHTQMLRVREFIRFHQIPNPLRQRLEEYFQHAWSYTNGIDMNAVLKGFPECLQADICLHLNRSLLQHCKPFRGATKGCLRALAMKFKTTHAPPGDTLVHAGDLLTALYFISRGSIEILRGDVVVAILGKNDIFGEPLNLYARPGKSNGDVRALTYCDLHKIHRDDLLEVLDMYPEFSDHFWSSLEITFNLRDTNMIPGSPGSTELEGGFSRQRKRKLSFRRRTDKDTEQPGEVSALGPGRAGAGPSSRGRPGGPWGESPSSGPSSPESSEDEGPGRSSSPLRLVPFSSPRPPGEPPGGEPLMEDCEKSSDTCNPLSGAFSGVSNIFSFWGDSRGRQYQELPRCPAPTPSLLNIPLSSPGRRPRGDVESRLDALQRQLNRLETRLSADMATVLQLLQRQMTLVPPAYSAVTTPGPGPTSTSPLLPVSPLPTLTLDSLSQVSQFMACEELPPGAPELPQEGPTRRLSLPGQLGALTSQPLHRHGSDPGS

Compound	hERG current change (%, negative = inhibition) at 1uM
CC(=O)Nc1ccc(S(=O)(=O)N2CCN(C(=O)c3ncoc3-c3ccc(F)cc3)CC2)cc1	-6.02%
O=C(O)c1cc(NC(=O)c2cccc(C(=O)Nc3cc(C(=O)O)cc(C(=O)O)c3)c2)cc(C(=O)O)c1	14.1%
O=C(NC1=NCCS1)c1cccs1	4.23%
C=CCNc1ccc(C(=O)O)cc1	0.797%
COc1ccc(-c2c(-c3ccc(OCC(=O)NN)cc3O)n[nH]c2C)cc1	10.1%
CN(Cc1ccon1)C(=O)CC1C(=O)NCCN1Cc1cccc(Oc2ccccc2)c1 (stereo not drawn)	-0.609%
COc1ccc(Cl)cc1NC(=O)c1sc2nc(C)nc(N3CCOCC3)c2c1C	5.16%
COc1cccc(C(=O)C2CCCN(Cc3ccc(F)cc3)C2)c1 (stereo not drawn)	4.29%
O=C(Nc1ccon1)c1cnc2sccn2c1=O	10.9%
Cc1ccnc(SCC(=O)N2CCN(c3ccccc3)CC2)n1	-10.2%
CC(C)CN1CCC(=O)N(CCO)CC1	1.57%
Cc1noc(C)c1C(=O)OCC(=O)Nc1ccccc1C(=O)NC(C)c1ccccc1 (stereo not drawn)	9.01%
Nc1ccccc1C(=O)NNC1=C(C(=O)C(F)(F)F)CCC1	11.4%
COc1cccc(CN(C)C(=O)c2ccc(C)c(S(=O)(=O)N3CCCCC3)c2)c1	5.78%
CC12CCC(=O)N1C(C(=O)N1CCN(S(=O)(=O)c3ccc(F)c(F)c3)CC1)CS2 (stereo not drawn)	-18.5%
COc1cccc(N2CC(C(=O)Nc3nnc(SCCC4OCCO4)s3)CC2=O)c1 (stereo not drawn)	7.66%
CCOC(=O)C1=C(c2ccccc2)Nc2ncnn2C1c1ccc(C(=O)O)cc1 (stereo not drawn)	-1.17%
CC(C)(C)C(=O)NC(=S)Nc1cccc(C(=O)O)c1	-4.2%
CCS(=O)(=O)c1ccc2oc(Nc3ccccc3C)nc2c1	11.2%
CCOC(=O)C1=C(C)N(CCCC(=O)O)C(=O)NC1c1ccc(OC)cc1 (stereo not drawn)	12.7%
O=S(=O)(Nc1ccccc1N1CCOCC1)c1ccc(F)c(Cl)c1	9.98%
CCCCN(Cc1nc2ccccc2c(=O)[nH]1)C(=O)COc1ccc(F)cc1Cl	10.5%
O=C(N=C1c2ccccc2CN1c1ccc(F)c(Cl)c1)c1cccnc1Cl	13.2%
NNC(=O)CS(=O)(=O)c1ccc(Cl)cc1	7.58%
CC(C)C(c1nnnn1Cc1ccco1)N1CCN(C2CCCC2)CC1.Cl (stereo not drawn)	10.2%
CC[C@H]1OC(=O)[C@H](C)[C@@H](O[C@H]2C[C@@](C)(OC)[C@@H](O)[C@H](C)O2)[C@H](C)[C@@H](O[C@@H]2O[C@H](C)C[C@H](N(C)C)[C@H]2O)[C@](C)(OC)C[C@@H](C)C(=O)[C@H](C)[C@@H](O)[C@]1(C)O	18.9%
Cc1cccc(NC(=O)CNC(=O)c2ccccc2Cl)n1	3.57%

Compound	hERG current change (%, negative = inhibition) at 1uM
Cc1ccc2nc(SCC(=O)Nc3ccc(F)cc3)nc(=O)n2c1	3.45%
O=C(NCc1ccc2c(c1)OCO2)c1ccc(Cl)c(S(=O)(=O)NCc2ccccc2)c1	-3.23%
COc1cc(C#N)ccc1OCC(=O)Nc1ccc(C)c(S(=O)(=O)N2CCOCC2)c1	-0.642%
O=C(NCc1n[nH]c(=S)n1-c1ccc(Br)cc1)c1ccc(S(=O)(=O)N2CCOCC2)cc1	18%
O=C(O)Cn1cnc2c(=S)nc[nH]c21	12.4%
Cc1ccc(NC(=O)C2CCCN2C(=O)c2cccs2)c(C)c1 (stereo not drawn)	9.88%
COc1ccccc1OCc1nn[nH]n1	19.6%
O=C(Cc1ccccc1)NC(=S)Nc1cccc(C(F)(F)F)c1	10.7%
O=C(CSc1c2c(nc3cc(Cl)ccc13)CCCC2)NCc1ccco1	0.391%
COc1ccc(-c2nn(-c3ccccc3)cc2C#N)cc1	-2.97%
COc1ccc(-n2nc(C(=O)NCC(=O)NC(C)C)c3ccccc3c2=O)cc1	12.4%
Cn1c2ccccc2c2cc(/C=C(\NC(=O)c3ccccc3)C(=O)NCC(=O)O)ccc21	2.26%
CC1(c2nnc(-c3ccncc3)o2)CC(c2cccc(Cl)c2)=NO1 (stereo not drawn)	13.4%
CC1CC(C)CN(C(=O)Cn2c(=O)n(CCCC(=O)NCc3ccco3)c(=O)c3sccc32)C1 (stereo not drawn)	10.4%
Cn1ncc(Cl)c1C(=O)N1CCCc2ccccc21	6.48%
C[C@]12CC[C@@H]3c4ccc(OC(=O)c5ccccc5)cc4CC[C@H]3[C@@H]1CC[C@@H]2O	11.9%
O=C(Cc1ccc(F)cc1)Oc1ccc(C(=S)N2CCCC2)cc1	10.5%
COc1ccccc1N1CCC(N2CCN(CC(C)(C)C)C(CCO)C2)CC1 (stereo not drawn)	10.2%
CC1CCN(C(c2ccccc2)c2nnnn2C(C)(C)C)CC1.Cl (stereo not drawn)	2.48%
O=C1c2ccccc2C(=O)N1CCc1nc(-c2ccccn2)no1	0.867%
COC(=O)c1ccc(C(=O)OC)c(NC(=O)N2c3ccccc3Sc3ccccc32)c1	11.7%
CC(C)(C)n1cnc2cc(NS(=O)(=O)c3ccc(Br)cc3)ccc21	6.5%
O=C(NCc1ccc(F)cc1)c1ccc(NC(=O)C2CCCO2)cc1 (stereo not drawn)	10.4%
CC[n+]1ccc(C(=O)NCc2ccccc2)cc1.[Cl-]	12.3%
Cn1cc(CNC(=O)c2cc(-c3ccc(Br)cc3)nc3ccccc23)cn1	8.83%
O=C(OCC(F)(F)C(F)F)c1ccccc1C(=O)Oc1ccc(F)cc1F	18.7%
Cn1ccnc1CN1CCCCC1C(=O)Nc1ccc(Oc2cccnc2)cc1 (stereo not drawn)	7.33%
